According to PubChem BioAssay (NCI):
Some compounds were tested as several samples or in several runs, with calls that do not always agree.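 Testing used 96-well plates and a 48-hour single-concentration exposure. Example: -40 means 40% of the starting cells died.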 A number of entries come with more than one value. This is not the full list of results. An entry can have further records. The calls were made as follows: active = growth percent below 10; inactive = the rest. These are repeated runs of one drug, at the concentration stated with the values; each value is one run. Marks such as (2×) stand for listed records that agree.

Tests used:
CCRF-CEM leukemia = assay: NCI-60 one-dose screen, 48 h (100 = growth as untreated, 0 = no growth, -100 = all killed); settings: 2.5 mM
MOLT-4 leukemia = assay: as above; settings: 2.5 mM

In the case of `O=c1[nH]cc(F)c(=O)[nH]1`, the growth (CCRF-CEM leukemia; runs of 1992) was “inactive: 27.7 (2×), 20.4, 25.1, 38.4, 23.1, 11.6, 21.3 (2×), 13.7, 22.7 (2×), 15.2, 16.6, 21, 34.9, 11.3, 21.4, 26.3, 25.6, 50.8, 25.7 (2×), 42.4, 23.4, 15.7 (2×), 21.8 (3×), 13.2, 26.1, 10.9, 29.4, 39.5, 25.4 (2×), 53.7, 22.1 (2×), 19.5 (3×), 17.3 (2×), 18.5, 30.4, 27.6, 16.8, 32.8, 34.7, 19.9 (2×), 21.7, 22.9, 26.5, 30.5 (2×), 16.5, 16.9 (3×), 22.3, 15.4, 15.3, 20.7 (2×), 18.3 (2×), 19.1 (2×), 17.5, 11.7, 23.2, 12.5, 12.6, 12.9, 15, 29.7, 19.6 (2×), 37.6, 12, 11.5, 20.8, 35.3, 24.6, 20, 22.5 (3×), 25.8, 16.1, 22.8, 57.3, 16.2, 22.4, 23.8, 15.1, 19.2 (2×), 23.3, 19.8, 73.4, 33.4, 20.2, 22.2, 28.8, 23.7, 37.3, 23% and active: 7, -19.9, -2.73, 1.99, -10.9, -32.8, 9.57, 7.06, -10.8, 3.74, -72.4%”, the growth (CCRF-CEM leukemia; runs of 1993) was “inactive: 20.8 (2×), 23.6, 12.1, 57.3, 25.3, 27.4, 26.6, 35.1, 10.7, 16, 15, 19.7, 20.5, 13.3, 17.2, 11.6, 21 (2×), 14, 22.1, 19.1, 16.2, 10.1, 25.4 (2×), 15.2, 51.8, 26.7, 18.8, 11.8, 21.1, 27.1, 27.7, 27, 23.4, 21.5, 17.3, 16.8, 64.4% and active: 0.0802, 6.28, -9.26, 2.67, 7.47, 9.17, 3.32%” and the growth (CCRF-CEM leukemia; runs of 1994) was “inactive: 27.3, 31.2, 28.8, 57.5, 35.8, 19.9, 31.8, 17.3, 51, 22.4 (2×), 21.4, 16.3, 13.5, 15.2, 11.5, 53.7, 27.8, 24.2, 19.4, 16.6, 23.8 (2×), 33.6, 11.9% and active: 9.82, -8.45, -18.3, 1.45, 7.04, -16.7%”. The growth (CCRF-CEM leukemia; runs of 1995) was “inactive: 18.6 (2×), 28.2, 31.5, 12.7, 27.7, 11.6, 27.2, 22.8, 20.7, 27.5, 27.9, 20.9, 15, 18.3, 11.4, 26, 18.7, 32, 15.6, 34.4, 21.5, 11.5% and active: -17.8, 5.75, -16.4, 4.82, -1.4, 0.246, 6.24, -18.1, 6.98, -20.9, 8.52, 4.28, -23.2, -10.2%”, the growth (CCRF-CEM leukemia; runs of 1996) was “inactive: 13.5, 37, 15.1, 17.8 (2×), 14.4, 76.9, 30.6, 17, 15.4, 60.6, 27.2, 18.2, 18.9, 13.2, 20.2, 16.4, 12.1, 30.1, 41.7, 19, 24.2, 33.5, 29.5, 21.4, 13.8, 39.7, 19.6, 25, 16.9, 12.9, 18, 19.9% and active: 3.57, -12.1, -18 (2×), 4.93, 8.6, 9.71, 5.71, -25.9, 7.45, 9.01, -18.9, -9.44, -3.37, 7.93, -27.9, 2.61, -31.2%” and the growth (CCRF-CEM leukemia; runs of 1997) was “inactive: 22.3, 12.6, 10.2, 14.9 (2×), 29.5, 28, 16.7, 16.8, 27, 26.5, 34.5, 31.6, 21, 45.8, 33.9, 100, 40.7, 60, 39.3, 12.9, 32.8, 93.3, 111, 16.1% and active: 5.66, 5.01, -52.9, 8.81, -25.9, -34.4, 9.98, 8.29, -3.64, -23.9, -33.5%”. For the same molecule, the growth (CCRF-CEM leukemia; runs of 1998) was “inactive: 36.6, 13.3, 62.9, 68.9, 51.8, 14.6, 27.5, 34.4, 33.1, 23.4, 46.6, 49.2, 45.5, 32.1, 39.5, 20.2, 19.3% and active: -48.2, 5.05, -1.44, 8.58%”, the growth (CCRF-CEM leukemia; runs of 1999) was “inactive: 40.6, 43.9, 17.6, 12.7, 25.3% and active: 5.09, 2.33, -7.29, -76.7, 5.13, 2.16, -40.8%” and the growth (CCRF-CEM leukemia; runs of 2000) was “active: 5.34, -69, 8.9, -44.4%”. The growth (MOLT-4 leukemia; runs of 1991) was “inactive: 13.8, 18.9, 17.9, 28.1, 15.7, 22.1, 19, 10.9, 22.2, 24, 33.8% and active: 8.02, 8.92, 4.31, 7.66, -11.7, 5.97, 6.82, 5.34%”, the growth (MOLT-4 leukemia; runs of 1992) was “inactive: 27.6, 54, 13.6, 11.4 (2×), 36.7, 15, 50.2, 75.2, 16.3, 14.6, 17.8, 15.9, 15.4, 26, 13.8 (3×), 13.7 (2×), 13, 22.2, 16.9, 11, 10.5, 12.4, 16.5, 11.6, 23.7, 12.1 (2×), 10, 12.2, 12.5, 15.5, 14.1, 11.1, 19.3, 17.6, 10.7, 25.1, 15.7, 10.4, 40.5% and active: 9.9, 5.64, -4, 7.9, -20.3, -18.6, 0.135, 8.27, -27, -28.3, -22, -9.47, 6.48, 8.02, 5.2, 7.16, 8.81, 8.13, 5.08, 8.34, 5.91, 6.8, 4.94, 6.91, 6.82, -20.7, 0.316, 3.66, 6.24, 4.41, 4.82 (2×), -5.5, 5.61, 7.81, 2.99, 5.21, 1.52, -0.904, 7.42, -5.31, -12.1, 6.63, 4.97, -12.9, 2.22, -2.75, -13.1, 3.98, 4.96, 3.87, 0.266, 2.97, 5.85, 3.23, 7.33, 9.87, -2.76, -4.9, 6.35, 2.83, -2.65, -6.41, -15.8, -9.1, 7.43, 2.19, 9.72, 7.07, -5.75, 4.79, 8.35, 0.959, 1.25%” and the growth (MOLT-4 leukemia; runs of 1993) was “active: 6.99, 8.58, 5.29, 4.26, -6.78, 9.83, 6.96, 2.63, -15.9, -0.625, 2.47, -3.65, 6.32, -18.6, 2.98, 2.13, -14.7, 1.03, 5.52, 2.54, 3.03, -3.03, 4.55, 2.73, 3.21, -4.53, 2.3, -10.1, -45.6, 7.07, 0.427% and inactive: 47, 57.5, 22.6, 10.1, 28.4, 12.5, 32.7, 40.3, 11.7, 15, 58.6, 12.1, 94.4, 14.1, 64.2, 13.5, 22.2, 11.6, 14.3%”. The growth (MOLT-4 leukemia; runs of 1994) was “active: 4.41, -12.9, -22.2, -25.5, 4.5, 3.36, -5.21, 5.63, -13.1, -16.3, 1.28, -0.655, 3.29, -7.31, 8.95, -13.4, -11.7, 6.43, -16.9% and inactive: 41.6, 15.5, 33.1, 18.1 (2×), 15.2, 26.8, 71.4, 19.1, 15.8, 18, 14.1, 27.4, 16.4, 43.2%”, the growth (MOLT-4 leukemia; runs of 1995) was “active: 9.56, 7.9, -4.48, 9.52, 5.38, -10.4, 6.06, -0.178, 3.84, -16, 4.65, 7.06, 2.52, 8.04, 5.98, -8.87, -12.5, 0.428, -7.92, -27.9, 2.56, -6.97, -20.8, -37.9, -7.14% and inactive: 23.3, 19.7, 12.6, 14.7, 24.7, 25.3, 10.9, 11.3, 46.4, 31.5, 14.9, 14, 20.2, 10.1%” and the growth (MOLT-4 leukemia; runs of 1996) was “active: 4.99, -18.8, -15, -0.277, 0.163, -30.2, 2.04, -34.8, -4.76, 1.21, -33.4, -25.4, -26.8, -51.4, -38.2, 4.71, -15.8, -12.3, -0.156, -25.6, -44.2, -32.3, -57.3 (2×), -20.8, -7.34, 7.47, -15.5, -3.53, -14.9, -35.9, -13.6, -2.13, 1.88, -6.59, 7.66, 3.13, -9.31, -32.2, 4.58% and inactive: 18, 26.3, 40.9, 14.9, 37.5, 12.2, 12.1, 10.5, 14.2, 27.7, 10.7, 15, 18.5%”.
